Measured values as given in the supplement of paper PMC11417369.
± gives the standard deviation of the averaged measurements. Some of the results follow.

Test system: PfAP2-LT AP2 domain (GST-tagged)
Assay: gcPBM binding intensity (ln(normalized median fluorescence intensity)); higher = stronger DNA binding
Procedure, shortened: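 After 1 h on an Agilent 4 × 180k array of primer-extended double-stranded 36-bp intergenic genomic probes and negative controls, bound GST-tagged P. falciparum DNA-binding domains were detected with Alexa488 anti-GST antibody and scanned at 488 nm. The domains had been expressed in E. coli, and binding took place in 1× PBS with 1% milk, 0.2 mg/ml BSA, 0.5% salmon testes DNA and 0.03% Triton X-100. Binding intensity is the highest Masliner-normalised natural-log median intensity across replicate spots of either probe orientation.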

Sequence	gcPBM binding intensity (ln)
ATATATTATAAATGTAGTACCGTTACATAGTCATAG [XGTACX_site390]	8.95 ± 0.4
TATATATTGCCCTTCACACACACACCCATATATATA [CACACA_site2493]	9.77 ± 0.26
CACACCACCAACAAAAGTACATACATATATATATAT [XGTACX_site5781]	9.65 ± 0.14
ACTACGAGTCGTAGAGTGCAGTCTGGAGAAAAGTAC [GTGCAC_site9769]	8.98 ± 0.53
ATCAAGCACGAACACACACACACACGCACGCCCACA [CACACA_site6308]	10.3 ± 0.3
TTTTTTTTTTTCTCCATACACACTTGATAAAACTTT [CACACA_site615]	8.6 ± 0.54
ATTTTTTTTTTTTGTACATACCACATATACAAAACA [CACACA_negctrl_site1240]	8.75 ± 0.44
TAATTGATTCTTCACCGTACTCACACATATATATAT [XGTACX_site6530]	9.19 ± 0.38
ATATATTGAACCTATGCATGTAAAATATATGTAATA [TGCATGCA_site644]	8.88 ± 0.43
AAATATTAAATGGAAAACAAATATATATATCTTAAT [XGTACX_negctrl_site383]	8.57 ± 0.43
TGTGTGGATATATGTATGCACTACCCTTTGGGTCAT [GTGCAC_site9506]	8.88 ± 0.5
TGTAAGTATTCTTGAGGTACACATATAAATATAGTA [XGTACX_site3207]	8.69 ± 0.43
AATATTATATAATAAAGTACATATATATTCATATTT [XGTACX_site7204]	8.66 ± 0.4
ATATATATATATAGGAGTACATGAAATACTTAAAAA [XGTACX_site8851]	8.83 ± 0.48
GTGTGAAGATATAAATGCATTTTTTTATACATTTTC [CACACA_negctrl_site117]	8.71 ± 0.41
AAAAAAGAAATAATCAAATAAATAAAAAAGATGAAT [XGTACX_negctrl_site607]	8.84 ± 0.54
TATAAATACATCCTATACTTCTCTTTTACAGTTTTA [CACACA_negctrl_site1283]	8.6 ± 0.5
GACATTAATTATTTGACACACGACTGGGTGGTGATT [CACACA_site306]	9.01 ± 0.39
TGATTCAATTTATGCACACTAAAAATTAATTATATT [CACACA_site271]	8.6 ± 0.48

Sequence	gcPBM binding intensity (ln)
TTTTTTTTTTATACATGTACTTAAAAGTAGCACCTT [XGTACX_site1855]	8.68 ± 0.53
ATTATATATACAACAAGTACAAAAGAAAAATATTAT [XGTACX_site2914]	8.76 ± 0.49
TTTGTAAAAGGTCATACACACATATTCAAAAGAAGT [CACACA_site2947]	9.05 ± 0.37
AAAAAAAAAAAATACACACACACATATAAATATGTA [CACACA_site6900]	9.62 ± 0.32
GTTTATATATGCTTATAATTTTCAATTGTTTTACAA [TGCATGCA_negctrl_site384]	8.63 ± 0.46
ATATATATATATAATTGTACATTTTTAACCTTAACA [XGTACX_site7910]	8.8 ± 0.53
TTTTATGTTTTTTTTATAAATATTAAAATTCTATAT [CACACA_negctrl_site1477]	8.28 ± 0.52
ATATTGTTATATGTTTGTACATATTTTTTATATTTT [XGTACX_site6834]	8.94 ± 0.47
AATGTTAAAAATGAAAGTACATGGAATTTATTATTT [XGTACX_site4095]	8.61 ± 0.41
TTATATGTATTTCTTTGTACACATTTTTATATATAT [XGTACX_site1462]	9.11 ± 0.42
CACTTCAAAAAAATATGTACACATATATATATATAT [XGTACX_site3075]	9.365 ± 0.035
ATTATGCACCAACACACACACACACCCCTAAAAAAT [CACACA_site2568]	10.04 ± 0.057
TATCATTTTTTTAAAACACACATAATAATATAAATA [CACACA_site2845]	8.39 ± 0.36
TAAATTTTATAAATCTGTACATATGAGCAAGAACAT [XGTACX_site7400]	8.8 ± 0.39
TTATTAGGTATATATGCACACAATACCCAAAACAAC [CACACA_site4221]	9.04 ± 0.31
GGTAATAAACAATGAAGTACGTAAAGGTAAAATATT [XGTACX_site2647]	9.36 ± 0.52
TGTAAATATAAATGTAATAAATATGTAAAAATAAAT [XGTACX_negctrl_site171]	8.74 ± 0.46
ATTTAATTTTCATGATGTACTATAGTTTAATGCACA [XGTACX_site1624]	8.83 ± 0.34
TAATAATCAAACTATACACACATAAATAGATATATA [CACACA_site6220]	8.99 ± 0.39

Sequence	gcPBM binding intensity (ln)
TATTTTCAAAAATATACACACACATAAATATATGTA [CACACA_site8160]	9.1 ± 0.26
TTCCTTCAAAATTTAAGTAATAAGATAAAAATATAA [CACACA_negctrl_site1696]	8.24 ± 0.4
CACAGATAAATTAACACACACACACGGATATTTATA [CACACA_site7788]	10 ± 0.085
ATGTATACAAATATATGTACGTATGTTCTCTTCTTT [XGTACX_site7865]	9.01 ± 0.45
TAAAGAGTTACCATTTGTACTTACGCACACATAAAA [XGTACX_site3145]	9.02 ± 0.44
TTTTTATGTTATCAAATAAATATAAATATAATTCAT [CACACA_negctrl_site1522]	8.12 ± 0.38
TATATTTGAAATATATGTACTTATAATACAGTTTAA [XGTACX_site8039]	8.4 ± 0.46
GAATGAATACGTTTTACACACTTGAATATAATTTCA [CACACA_site989]	8.78 ± 0.36
ATATATAAATTTAATACACACCCAAAAAAAAAAAAA [CACACA_site7719]	8.87 ± 0.37
TAAATATATAAACACACACACATTAATACAGATATT [CACACA_site5851]	9.69 ± 0.23
AAAATTATAAAATGGGCACACATGAAGATTGTAGTA [CACACA_site2226]	8.88 ± 0.49
ATTTACCCTTGCCATGCACACTTTTTTATAGAAAAT [CACACA_site5857]	9.12 ± 0.38
TATTAATACAGACACACACACACACTAATTAAAATA [CACACA_site7967]	9.96 ± 0.2
AATATATAATTAATTGCACACCTTGTCACGCCAAAA [CACACA_site1174]	8.95 ± 0.36
ATCTATATTTTTATAACACACAATGATGTACATTAC [CACACA_site6633]	9.12 ± 0.35
TGAAAATATTTTATATGTACATATATTATCAATACA [XGTACX_site92]	8.64 ± 0.38
TAGAATAATCTATAAACACACAAACCCAACAAAAGA [CACACA_site6132]	9.28 ± 0.4
TTATTTATTTTTTCATGTACTTAAATATATTAATGT [XGTACX_site5804]	8.62 ± 0.47
